About 150 (0.041%) of roughly 370,000 compounds were called active. Inconclusive results, whose numbers are uncertain, are shown with a selection of clear calls. Calls follow the shape of the dose curve; as a rule, active = well fitted inhibition curve with a large enough effect; inconclusive = small, poorly fitted or top-dose-only effect; inactive = flat fitted curve, though single readings scatter. No potency is given beside an inconclusive call; the fits are too rough.
target: Beta-lactamase (Escherichia coli (strain K12)) (UniProt P00811); experiment: qHTS Inhibitors of AmpC Beta-Lactamase (assay with detergent); settings: AmpC hydrolysis of nitrocefin, absorbance 480 nm, 0.01% Triton; series mostly up to 114 µM; also: nearly all actives have a fitted effect of over 25% in size
Procedure, shortened: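 20 mM phosphate pH 7.0 + 0.01% (detergent screen) or 0.0001% Triton X-100; 5.3 nM AmpC reagent; cpd preinc 15 min RT; nitrocefin (800 uM stock) to start; A480 q20 s × 4 min; Activity was normalised to no-enzyme and no-compound control wells.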
Potency is read from the fitted curve at half-maximal effect; tags tell the direction and shape of the fitted curve.

Chain of UniProt P00811 (P00811 whole entry, looked up): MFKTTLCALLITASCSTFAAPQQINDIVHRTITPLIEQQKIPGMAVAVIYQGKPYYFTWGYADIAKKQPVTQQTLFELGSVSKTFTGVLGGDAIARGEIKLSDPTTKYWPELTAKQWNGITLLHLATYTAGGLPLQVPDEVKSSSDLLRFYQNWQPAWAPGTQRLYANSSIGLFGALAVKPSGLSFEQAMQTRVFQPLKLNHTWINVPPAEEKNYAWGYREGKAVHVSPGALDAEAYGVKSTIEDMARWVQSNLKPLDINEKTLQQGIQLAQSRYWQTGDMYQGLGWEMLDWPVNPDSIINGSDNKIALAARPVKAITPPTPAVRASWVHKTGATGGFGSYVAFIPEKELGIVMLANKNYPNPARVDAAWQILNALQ

Row | Compound | Potency
1 | CCc1nnc(SCC(=O)Nc2ccc(F)cc2)o1 | inactive
2 | COC(=O)N/C(C)=C1/NC(=O)c2ccccc2C(c2ccccc2)N1 (stereo not drawn) | inconclusive [inhibitor, full curve, poor fit]
3 | CCOC(=O)c1nnc2ccnn2c1N | inconclusive [inhibitor, full curve]
4 | COc1ccc(CN2C(=NC(=O)C3CCCO3)SC3CS(=O)(=O)CC32)cc1OC (stereo not drawn) | inactive
5 | O=C1CC(C2CCCO2)C(=O)N1c1ccc(Cl)c(Cl)c1 (stereo not drawn) | inconclusive [inhibitor, full curve, poor fit]
6 | CCS(=O)(=O)N1CCC(C(=O)Oc2ccccc2)CC1 | inconclusive [inhibitor, partial curve, poor fit]
7 | CN(C1CCCCC1)S(=O)(=O)c1ccc(NC(=O)C2CCCCC2C(=O)O)cc1 (stereo not drawn) | inconclusive [inhibitor, full curve, poor fit]
8 | COc1ccc(C2=CC(c3ccc(Cl)cc3)n3cnnc3N2)cc1OC (stereo not drawn) | inconclusive [inhibitor, single point]
9 | COc1ccccc1/C=C/C(=O)Nc1ccc2c(c1)CCC2 | inconclusive [inhibitor, partial curve, poor fit]
10 | CC1CCCC(C)N1C(=O)c1ccc2c(c1)S(=O)(=O)c1ccccc1C2=O (stereo not drawn) | inconclusive [inhibitor, full curve, poor fit]
11 | COc1ccc(OCC(=O)NC(=O)c2ccccc2OC)c([N+](=O)[O-])c1 | inconclusive [inhibitor, full curve, poor fit]
12 | Oc1c(N=NC(=S)Nc2ccccc2F)c2ccccc2n1Cc1ccccc1 | inactive
13 | O=C1CCC(C(=O)NCCN2C(=O)S/C(=C\c3cccnc3)C2=O)=NN1 | inactive
14 | O=C(c1ccc2c(c1)OCO2)N1CCN(c2ccccc2)CC1 | inactive
15 | O=C(NCCCN1CCCC1=O)c1ccc(NS(=O)(=O)c2ccc(F)cc2)cc1 | inactive
16 | CN1CCN(c2cc(N3CCc4ccccc4C3)c(F)cc2[N+](=O)[O-])CC1 | inconclusive [inhibitor, full curve]
17 | CC(=O)N1CCc2c(sc(NC(=O)Cc3ccccc3)c2C(N)=O)C1 | inconclusive [inhibitor, full curve]
18 | O=C(c1noc2c1CCCC2)N1CCN(Cc2ccccc2)CC1 | inconclusive [inhibitor, full curve, poor fit]
19 | CC1CCCC(C)N1C(=O)c1cc(-c2ccc(Cl)c(Cl)c2)on1 (stereo not drawn) | inconclusive [inhibitor, full curve, poor fit]
20 | COc1ccc(C(=O)Cn2c(Br)nc3c2c(=O)n(C)c(=O)n3C)cc1OC | inconclusive [inhibitor, full curve, poor fit]
21 | Cc1ccc2c(c1)c1c(n2CC(O)CN2C(=O)CNC2=O)C(=O)CCC1 (stereo not drawn) | inconclusive [inhibitor, full curve, poor fit]
22 | CCOC(=O)C1=C(C)N=C2c3ccccc3C(=O)C2C1c1ccc(Cl)cc1 (stereo not drawn) | inconclusive [inhibitor, partial curve]

Row | Compound | Potency
23 | Cc1[nH]c2ccc(C(=O)OCC(=O)Nc3cccc(S(N)(=O)=O)c3)cc2c1C | inactive
24 | O=C(CN1CCOCC1)Nc1ccc(NC(=O)CN2CCOCC2)c(Cl)c1 | inconclusive [inhibitor, partial curve, poor fit]
25 | CC(=O)c1cc2c(cc1NC(=O)c1cnn(-c3ccc(C)cc3)c1-n1cccc1)OCO2 | inactive
26 | CCCC(c1nnnn1C(C)(C)CC)N1CCN(C2CCCC2)CC1 (stereo not drawn) | inconclusive [inhibitor, full curve, poor fit]
27 | Cn1cc(CN2CCN(c3ccccc3)CC2)c2ccccc21 | inconclusive [inhibitor, full curve]
28 | CC(C)CN(CCCNC(=O)CN1N=C(c2ccccc2)CCC1=O)CC(C)C | inactive
29 | Cc1csc(N(C(=O)Cc2ccccc2F)c2ccccc2)n1 | inconclusive [inhibitor, full curve, poor fit]
30 | CCOC(=O)C1=C(CN(CC)Cc2ccccc2)NC(=O)NC1c1ccc(OC(C)C)cc1 (stereo not drawn) | inactive
31 | CCCCN(CC)Cc1ccc(CNC(=S)Nc2cccc(F)c2)o1 | inactive
32 | CSc1ccc(S(=O)(=O)Nc2ccc3c4c(cccc24)CC3)cc1 | inactive
33 | Cc1ccc(C)c(NC(=O)CN(C)C(=O)c2cc3c(s2)CCCCC3)c1 | inconclusive [inhibitor, full curve, poor fit]
34 | CCCC(O)(CCN1CCCCC1)c1ccc(OCC)cc1 (stereo not drawn) | inactive
35 | COc1ccc(OC)c(S(=O)(=O)N2CCN(c3c(C)cccc3C)CC2)c1 | inconclusive [inhibitor, full curve, poor fit]
36 | Cc1occc1-c1nnc(SCC(=O)N(C)c2ccccc2)n1C | inconclusive [inhibitor, partial curve]
37 | O=C(CCNC(=O)C1CCN(S(=O)(=O)c2ccc(F)cc2)CC1)NCc1ccccc1 | inconclusive [inhibitor, partial curve, poor fit]
38 | COCCCNC(=S)NC(=O)c1ccc([N+](=O)[O-])cc1 | inconclusive [inhibitor, partial curve]
39 | CCCCCCCCNc1nc(Cl)nc(NCc2ccco2)n1 | inconclusive [inhibitor, partial curve]
40 | O=C(c1cccnc1)N1CCN(c2ccc(Cl)cc2)CC1 | inconclusive [inhibitor, partial curve, poor fit]
41 | O=c1cc(CSc2ccc(Cl)cc2)nc(-c2ccccc2)[nH]1 | inconclusive [inhibitor, full curve, poor fit]
42 | COc1cc(NC(=O)C2CCN(S(=O)(=O)c3cnc[nH]3)CC2)cc(OC)c1OC | inconclusive [inhibitor, partial curve]
43 | O=C(NC1CC1)C(=O)c1c(-c2ccccc2)[nH]c2ccccc12 | inconclusive [inhibitor, full curve, poor fit]
